Reference: PubChem BioAssay AID1508623 (National Center for Advancing Translational Sciences (NCATS), 2021)
The campaign covered roughly 48,000 compounds. About 450 (0.94%) were called active. Another 19% or so got no clear call; they are omitted. Calls follow the shape of the dose curve; as a rule, active = well fitted inhibition curve with a large enough effect; inconclusive = small, poorly fitted or top-dose-only effect; inactive = no such curve, though single readings can be large or run the other way. The list shows a part of the results.

Assay: Primary qHTS for Identification of Small Molecule Inhibitors of Huntingtin Promoter Activity; also: nearly all actives have a fitted effect of over 50% in size
Details: HEK293 HTT promoter firefly luciferase reporter (activity 0% = vehicle and -100% = no light), 24 h; series mostly up to 57.5 µM; activity change, negative = inhibition: at the top concentration
Outline: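 Firefly luciferase readout (Dual-Glo, 10 min RT) after 24 h, 37 °C compound exposure (final up to 57.5 uM) of HEK293 reporter cells cultured 24 h beforehand; PTC124 at 50 uM final as control inhibitor; activity scaled vehicle 0%, zero RLU -100%.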
Potency is read from the fitted curve at half-maximal effect.

Activity change, negative = inhibition, inactive:
COc1ccc(NC(=O)CSC2=Nc3ccccc3C3=NC(CCC(=O)NCCc4ccccc4)C(=O)N23)cc1 (configuration not stated) -17.9%
CC(C)(C)OC(=O)N1CCC(c2c(C(=O)N3CCN(C4CCCCC4)CC3)cnn2-c2cccc(Cl)c2)CC1 -27.4%
Cn1cc[nH]c1=S 11.5%
CCOC(=O)N1CCC(NC(=O)c2cnn(-c3cccc(C)c3)c2-n2cccc2)CC1 -29.7%
Cc1ccc(C)c(NC(=O)C(C)N(c2ccccc2)S(C)(=O)=O)c1 (configuration not stated) -11.4%
Cc1oc2ncn(CC(C)C)c(=O)c2c1C(=O)Nc1ccc(Cl)cn1 0.748%
O=C(NCc1ccccc1Cl)C1CCCN(c2nc3ccccc3n3cccc23)C1 (configuration not stated) -23.6%
Cc1ccc(C)c(S(=O)(=O)NCC(c2ccc(N(C)C)cc2)N2CCOCC2)c1 (configuration not stated) -18.9%
Cc1cccc(OCCn2nnc3sc4c(c3c2=O)CCCC4)c1 8.86%
CC(C)c1ccc(NS(=O)(=O)c2ccc3[nH]cc(C(=O)NC4CCCCC4)c(=O)c3c2)cc1 14.9%
CCOc1ccc(CNCCNC(=O)c2nonc2N)cc1 -13.6%
CCOC(=O)c1sc(NC(=O)c2nc(SC)ncc2Cl)c(C(=O)OCC)c1C -2.47%
Cc1cccc(NC(=O)c2sc3cccc(Cl)c3c2Cl)c1 78.7%
CNC(=O)c1c(NC(=O)c2cc(=O)c3ccccc3o2)sc2c1CCC2 5.31%
CCCCNC(=O)CSc1c2c(nc3ccc(Cl)cc13)CCCC2 -2.78%
COc1ccc(-c2nc3ccccc3s2)cc1NC(=O)c1ccccc1OC 48%
COc1cccc(-c2nc(S(=O)(=O)c3ccccc3)c(NCc3ccccc3)o2)c1 -5.9%
Cn1c(=O)c2sccc2n2c(CCCC(=O)Nc3ccc(F)c(F)c3)nnc12 0.603%
COc1cccc(-c2cc(C(F)(F)F)nc(NCc3ccc(F)cc3)n2)c1 -20.2%
COc1ccc(CCNC(=O)c2ccc3c(c2)nc2n3CCOC2)cc1OC -7.46%
Cc1c(C(=O)Nc2ccc(F)cc2F)nnn1-c1ccccc1Br -22%
CC1=C(C(=O)Nc2ccccc2)C(c2ccncc2)n2nc(SCc3ccccc3)nc2N1 (configuration not stated) -8.35%
COCCCNC(=O)c1c(C)nn(-c2ccc(F)cc2)c1-n1cccc1 -27.4%
CCc1nn(CC(=O)NCc2cccc(OC)c2OC)c(=O)c2cc3occc3n12 2.88%
Cc1ccc(C(=O)COC(=O)C(Cc2c[nH]c3ccccc23)NC(=O)c2ccc(Br)cc2)cc1 (configuration not stated) -5.1%
O=C(NCCCO)C(=O)Nc1c2c(nn1-c1ccc(F)cc1)CSC2 -11.9%
COc1ccc(NC(=O)C2=C(C)Nc3nc(SC)nn3C2c2cc(OC)ccc2OC)cc1 (configuration not stated) -0.58%
Cc1nnc(N2CCC(C(=O)NCc3ccc(N(C)C)cc3)CC2)c2nn(-c3ccccc3)c(C)c12 -7.49%
Cc1cc2oc(C(=O)Nc3cccc(-c4nc5ccccc5o4)c3)c(C)c2cc1Cl -11.8%
O=C(Nc1ccc(Cl)cc1)c1ccc2c(c1)N(Cc1ccccc1)C(=O)c1ccccc1S2(=O)=O -23.6%
CN(CC(=O)Nc1cccc(C#N)c1)S(=O)(=O)c1cc2c(cc1Cl)NC(=O)CO2 -21.6%
CCOc1ccccc1CNC(=O)CC(C)n1ccc(C)n1 (configuration not stated) -7.65%
CCOC(=O)c1cccc(NC(=O)CCn2nc(C)c3c(C)n(-c4ccccc4)nc3c2=O)c1 -24.8%
COCCCNC(=O)C1CCCN(S(=O)(=O)c2ccc3c(c2)oc(=O)n3C)C1 (configuration not stated) -18.2%
COc1ccccc1CNC(=O)c1ccc(CN2CC(=O)N3CCCCC3C2=O)cc1 (configuration not stated) -17.1%
COc1ccccc1C(=O)NCC1(N2CCN(C)CC2)CCCCC1 -12.6%
Cc1ccc(C)c(NC(=O)N2CCC(N3CCN(Cc4ccc(F)cc4)C(=O)C3=O)CC2)c1 -11.9%
Cc1ccccc1Nc1cc(C(=O)NC2CCCCC2)c2ccccc2n1 2.29%
CCOCCCn1c(SCC(=O)NCCCOC)nc2c(sc3ccccc32)c1=O -8.94%
Cc1c(NC(=O)c2ccccc2)cc(C(C)C)c(O)c1S(=O)(=O)c1ccc(Cl)cc1 -5.83%
Fc1ccc(Nc2ncnc3c2nc2n3CCCC2)cc1 22.2%
CCOC(=O)N1CCc2c(sc3c2c(=O)n(-c2ccc(Cl)cc2)c(=O)n3Cc2cccc(C)c2)C1 -10.6%
Cn1c(=O)oc2cc(S(=O)(=O)N3CCCC(C(=O)N4CCN(c5ccccc5F)CC4)C3)ccc21 (configuration not stated) -24.3%
O=C(NCCS(=O)(=O)N1CCN(c2ccc(F)cc2)CC1)c1cc(=O)c2ccccc2o1 -18%
CSc1cccc(Nc2cc(C(=O)NCCCN(Cc3ccccc3)C(C)C)c3ccccc3n2)c1 -17%
COc1ccccc1N1CCN(S(=O)(=O)c2cc3[nH]c(=O)c(=O)[nH]c3cc2C)CC1 3.23%
Cc1ccc2occ(CC(=O)N(Cc3ccc(N(C)C)cc3)C3CCS(=O)(=O)C3)c2c1 (configuration not stated) -18%
CCOc1ccc(CNC(=O)CCC(=O)N2CCSc3ccccc32)cc1 -21.2%
COc1ccc2nc(N3CCN(C(=O)C4CC4)CC3)sc2c1 35.3%
COC(=O)c1cc2oc3ccccc3c2n1Cc1c(F)cccc1Cl -8.11%
CCc1cccc(NC(=O)CN2CCCN(Cc3cccc(C)c3)S2(=O)=O)c1 -10.8%
Cc1ccc(Cl)cc1N(C)C(=O)c1cnc(N2CCOCC2)c2ccccc12 -5.1%
CCN(CC)C(=O)C1CCCN(c2ncnc3onc(C)c23)C1 (configuration not stated) -24.3%
COc1cccc(-c2nc3c(C#N)c[nH]n3c2NC2CCCCC2)c1OC -20.8%
CC(NC(=O)c1sc2ncccc2c1-n1cccc1)c1ccccc1 (configuration not stated) -20.6%
O=C(NCC(c1cccnc1)N1CCN(Cc2ccccc2)CC1)C(=O)Nc1cccc(F)c1 (configuration not stated) 12.3%
Cc1ccc(Cn2c(=O)n(CC3CCC(C(=O)N4CCOCC4)CC3)c(=O)c3sccc32)cc1 (configuration not stated) 6.05%
O=C(CC1Oc2ccc(Cl)cc2NC1=O)NCc1ccccc1 (configuration not stated) -5.5%
CCOC(=O)CC(NC(=O)Cn1nnc(-c2ccc(C(F)(F)F)cc2)n1)c1ccc(C)cc1 (configuration not stated) -27%
COc1ccc(CCNC(=O)CCCCCn2c(SCC(N)=O)nc3cc4c(cc3c2=O)OCO4)cc1OC -15.2%
CCN(CC)S(=O)(=O)c1ccc2c(c1)N(CC(=O)Nc1ccc(F)cc1)C(=O)CO2 -12.6%
Cc1ccc(C)c(N(C)C(=O)C2CCN(c3ncnc4c3nc3n4CCCCC3)CC2)c1 -21.1%
Cn1cnc(S(=O)(=O)N2CCCC(C(=O)Nc3cccc(C#N)c3)C2)c1 (configuration not stated) -16.7%
O=C(Nc1c(C(=O)c2ccc(F)cc2)oc2ccccc12)c1cc(-c2ccccc2)on1 -16.9%
COc1ccc(NC(=O)N(Cc2nnc3n2CCCCC3)c2ccc(OC)c(Cl)c2)cc1 -1.08%
CCN(CC)S(=O)(=O)c1nnc(NC(=O)COc2cccc(C)c2)s1 -13.7%
COCCNC(=O)CSc1nc2ccccc2nc1Cc1ccc(C)cc1 -11.5%
CCOc1ccc(CNC(=O)c2ccc3nc(CC)c(CC)nc3c2)cc1OC -6.11%
CCc1ccc(S(=O)(=O)c2c(C(=O)c3ccc(C)c(C)c3)cnc3ccccc23)cc1 -9.5%
COc1cccc(N2CCN(c3ccc4nnc(CCC(=O)O)n4n3)CC2)c1 7.42%
COc1cccc(Cc2nc3ccccc3nc2SCC(=O)Nc2ccccc2F)c1 -27.9%
Cc1c(C(=O)NCc2ccccc2Cl)cccc1-n1cnc2cccnc21 -22.8%
Cc1cccc(CNC(=O)c2ccc3nc(-c4ccccc4)c(-c4ccccc4)nc3c2)c1 1.83%
CCC1(c2ccccc2)C(=O)NCNC1=O -0.198%
CC(C)C1N=C2c3ccccc3N=C(SCC(=O)NCc3ccc(F)cc3)N2C1=O (configuration not stated) -21.5%
Cc1cccc(NC(=O)Cn2c(=O)n(CCc3ccccc3)c(=O)c3sc4ccccc4c32)c1 21.6%
CCC12CN3CC(C)(CN(C1)C3c1c(C)n(C)c3ccccc13)C2=O (configuration not stated) -7.84%
O=C(CSc1nc2c([nH]c3ccccc32)c(=O)n1-c1ccc(F)cc1)N1CCCc2ccccc21 6.02%
CCOC(=O)Cn1c(=O)n(C2CCCCC2)c2nc(-c3ccccc3Cl)nc(C(N)=O)c21 -14.2%
Cc1cccc(C)c1OCc1nc2c3cnn(-c4ccccc4Br)c3ncn2n1 -6.71%
Nc1c(-c2nc(-c3ccc(Cl)cc3)no2)nnn1-c1ccc(C(F)(F)F)c(Cl)c1 -7.11%
COc1ccc(CCN2C(=O)c3[nH]nc(-c4ccccc4O)c3C2c2ccc(O)c(OC)c2)cc1 (configuration not stated) -14.8%
COc1ccc(-c2c(C)nn3c(-c4ccccc4)cc(-c4ccccc4)nc23)cc1OC 15.3%
O=C(NC1CCCCC1)c1cc(Nc2ccccc2)nc2ccccc12 4.37%
COC(=O)c1ccc(NC(=O)CCNS(=O)(=O)c2cccc3nsnc23)cc1 -3.98%
CCC(CC)C(=O)Nc1nnc2n1CCS2 -0.277%
COC(=O)c1c(-c2ccc(Cl)cc2)noc1N1CCN(c2ccccc2F)CC1 -2.47%
CCCCNC(=O)c1ccc2c(c1)NC(=O)C(C(C)C)N2 (configuration not stated) -14.9%
COc1ccc2c(c1)c1c(c(=O)n(-c3ccc(F)c(Cl)c3)c(=O)n1Cc1ccccc1F)n2C -1.57%
COc1ccccc1NC(=O)C(=O)c1cc(C)n(-c2cc(C)cc(C)c2)c1C -5.43%
CCOc1cccc(-c2nc3ccccc3c(=O)o2)c1 13.1%
O=C1CC(c2ccccc2)Cc2[nH]c(=O)c(-c3nc(-c4ccc(Cl)c(Cl)c4)cs3)cc21 (configuration not stated) -20.2%
COC(=O)C1=C(C)NC(C)=C(C(=O)OC(C)(C)CN(C)CCC(c2ccccc2)c2ccccc2)C1c1cccc([N+](=O)[O-])c1 (configuration not stated) -24.4%
Cc1cc(C)c2oc(C(=O)NCCc3ccc(S(N)(=O)=O)cc3)cc(=O)c2c1 17.2%
CC(C)(C)c1ccc(C(=O)NC2=NC(c3cccc(F)c3)CC(=O)N2)cc1 (configuration not stated) -10.4%
COc1ccc(Cl)cc1NC(=O)C(=O)NCc1ccc(Cl)cc1 -14.2% [at 11.5 µM]

Potency, active:
c1ccc(N2CCN(c3ncnc4c3nc3n4CCCC3)CC2)cc1 12.6 µM
